50 cell lines from the supplement of paper PMC4967469 can be followed below.

A lower IC50 marks a more sensitive line; fits outside the tested doses are given as limits. For AUC the same curve is integrated over the 256-fold range of doses and scaled to a fraction: 1 means no effect, lower means more sensitive. Any top dose called inferred was derived from the fitted curves, not read from the paper. An entry number marks a drug with two screens in the source, which often give different values.

Compound in one test: NC(=O)[C@@H](CCC(F)(F)F)N(Cc1ccc(-c2ncon2)cc1F)S(=O)(=O)c1ccc(Cl)cc1 [BMS-708163]
Kind of test: Viability of human cancer cell lines after 72 h of drug (GDSC screen). The following applies: screen: GDSC drug entry 205; top dose inferred. Here is the method:
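Human cancer cell lines in 384-well plates, medium with 10% serum, drug for 72 h over a 256-fold dose range (nine 2-fold or five 4-fold steps up to the top dose). Adherent lines were fixed and stained with the nucleic acid dye Syto60, suspension lines read with resazurin; signal relative to control wells, capped at 0 and 100%. One two-parameter sigmoid per drug and line, fitted in a mixed model over all curves with the slope shared within a line.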
Broadly, the IC50 is the concentration that gives 50% inhibition. As for “EW-16 (Ewing sarcoma, adherent, top dose 10.24 µM)”, the AUC is 0.976 and the half-maximal inhibitory concentration (IC50) is greater than 10.2 µM.

For the cell line “EW-18 (Ewing sarcoma, suspension, top dose 10.24 µM)”, the AUC turned out to be 0.958 and the IC50 is greater than 10.2 µM.

Consider “EW-24 (Ewing sarcoma, semi-adherent, top dose 10.24 µM)”, for which the AUC is 0.993 and the half-inhibitory concentration (IC50) is greater than 10.2 µM.

In the case of “EoL-1-cell (haematopoietic neoplasm, suspension, top dose 10.24 µM)”, the AUC is 0.988 and the IC50 is greater than 10.2 µM.

Consider “FADU (head and neck, adherent, top dose 10.24 µM)”, for which the AUC was determined as 0.988 and the IC50 is greater than 10.2 µM.

Turning to “FLO-1 (oesophagus, adherent, top dose 10.24 µM)”, the AUC stood at 0.971 and the half-maximal inhibitory concentration (IC50) is greater than 10.2 µM.

Consider “FTC-133 (thyroid, adherent, top dose 10.24 µM)”, for which the AUC came out at 0.985 and the 50% inhibitory concentration (IC50) is greater than 10.2 µM.

For the cell line “FU97 (stomach, adherent, top dose 10.24 µM)”, the AUC stood at 0.985 and the half-maximal inhibitory concentration (IC50) is greater than 10.2 µM.

As to “FU-OV-1 (ovary, adherent, top dose 10.24 µM)”, the AUC turned out to be 0.977 and the IC50 was greater than 10.2 µM.

Turning to “Farage (B-cell lymphoma, suspension, top dose 10.24 µM)”, the AUC turned out to be 0.992 and the IC50 is greater than 10.2 µM.

For the cell line “G-292 Clone A141B1 (osteosarcoma, adherent, top dose 10.24 µM)”, the AUC stood at 0.972 and the concentration for half-maximal inhibition (IC50) is greater than 10.2 µM.

For the cell line “G-361 (melanoma, adherent, top dose 10.24 µM)”, the AUC amounted to 0.987 and the IC50 was greater than 10.2 µM.

As for “G-401 (kidney, adherent, top dose 10.24 µM)”, the AUC was 0.981 and the IC50 was greater than 10.2 µM.

On to “G-402 (soft tissue, adherent, top dose 10.24 µM)”, for which the AUC worked out at 0.977 and the IC50 was greater than 10.2 µM.

Consider “G-MEL (melanoma, adherent, top dose 10.24 µM)”, for which the AUC is 0.986 and the IC50 is greater than 10.2 µM.

On to “GAK (melanoma, adherent, top dose 10.24 µM)”, for which the AUC stood at 0.99 and the IC50 was greater than 10.2 µM.

With “GAMG (glioma, adherent, top dose 10.24 µM)”, the AUC was 0.985 and the half-maximal inhibitory concentration (IC50) was greater than 10.2 µM.

Consider “GB-1 (glioma, adherent, top dose 10.24 µM)”, for which the AUC stood at 0.982 and the IC50 was greater than 10.2 µM.

“GCIY (stomach, adherent, top dose 10.24 µM)”: the AUC turned out to be 0.973 and the IC50 is greater than 10.2 µM.

With “GCT (soft tissue, adherent, top dose 10.24 µM)”, the AUC stood at 0.989 and the IC50 was greater than 10.2 µM.

With “GDM-1 (acute myeloid leukaemia, suspension, top dose 10.24 µM)”, the AUC came to 0.985 and the 50% inhibitory concentration (IC50) is greater than 10.2 µM.

As to “GI-1 (glioma, adherent, top dose 10.24 µM)”, the AUC was 0.986 and the half-inhibitory concentration (IC50) is greater than 10.2 µM.

With “GI-ME-N (neuroblastoma, adherent, top dose 10.24 µM)”, the AUC amounted to 0.968 and the IC50 is greater than 10.2 µM.

As to “GMS-10 (glioma, adherent, top dose 10.24 µM)”, the AUC was determined as 0.988 and the half-maximal inhibitory concentration (IC50) was greater than 10.2 µM.

On to “GOTO (neuroblastoma, adherent, top dose 10.24 µM)”, for which the AUC is 0.984 and the half-inhibitory concentration (IC50) was greater than 10.2 µM.

Turning to “GP5d (large intestine, adherent, top dose 10.24 µM)”, the AUC came out at 0.986 and the IC50 is greater than 10.2 µM.

Take “GR-ST (lymphoblastic leukaemia, suspension, top dose 10.24 µM)”: the AUC was found to be 0.981 and the IC50 was greater than 10.2 µM.

As to “GRANTA-519 (B-cell lymphoma, suspension, top dose 10.24 µM)”, the AUC stood at 0.989 and the IC50 was greater than 10.2 µM.

Regarding “GT3TKB (stomach, adherent, top dose 10.24 µM)”, the AUC was found to be 0.99 and the IC50 was greater than 10.2 µM.

On to “H4 (glioma, adherent, top dose 10.24 µM)”, for which the AUC is 0.986 and the IC50 is greater than 10.2 µM.

As to “H9 (lymphoid neoplasm, suspension, top dose 10.24 µM)”, the AUC amounted to 0.986 and the IC50 was greater than 10.2 µM.

“H290 (mesothelioma, adherent, top dose 10.24 µM)”: the AUC was 0.988 and the concentration for half-maximal inhibition (IC50) is greater than 10.2 µM.

In the case of “H513 (mesothelioma, semi-adherent, top dose 10.24 µM)”, the AUC was found to be 0.973 and the half-maximal inhibitory concentration (IC50) was greater than 10.2 µM.

For “H2369 (mesothelioma, adherent, top dose 10.24 µM)”, the AUC was 0.987 and the half-maximal inhibitory concentration (IC50) was greater than 10.2 µM.

For “H2373 (mesothelioma, adherent, top dose 10.24 µM)”, the AUC is 0.983 and the IC50 is greater than 10.2 µM.

In the case of “H2461 (mesothelioma, adherent, top dose 10.24 µM)”, the AUC worked out at 0.983 and the IC50 is greater than 10.2 µM.

In the case of “H2591 (mesothelioma, adherent, top dose 10.24 µM)”, the AUC amounted to 0.977 and the IC50 is greater than 10.2 µM.

On to “H2595 (mesothelioma, adherent, top dose 10.24 µM)”, for which the AUC turned out to be 0.98 and the IC50 was greater than 10.2 µM.

For “H2722 (mesothelioma, adherent, top dose 10.24 µM)”, the AUC was determined as 0.967 and the concentration for half-maximal inhibition (IC50) is greater than 10.2 µM.

Turning to “H2731 (mesothelioma, adherent, top dose 10.24 µM)”, the AUC stood at 0.914 and the half-inhibitory concentration (IC50) is greater than 10.2 µM.

On to “H2795 (mesothelioma, adherent, top dose 10.24 µM)”, for which the AUC stood at 0.977 and the IC50 is greater than 10.2 µM.

Take “H2803 (mesothelioma, adherent, top dose 10.24 µM)”: the AUC was 0.98 and the IC50 is greater than 10.2 µM.

With “H2804 (mesothelioma, adherent, top dose 10.24 µM)”, the AUC amounted to 0.972 and the half-maximal inhibitory concentration (IC50) is greater than 10.2 µM.

For “H2818 (mesothelioma, adherent, top dose 10.24 µM)”, the AUC amounted to 0.987 and the IC50 is greater than 10.2 µM.

Regarding “H2869 (mesothelioma, adherent, top dose 10.24 µM)”, the AUC was found to be 0.946 and the IC50 is greater than 10.2 µM.

As to “H3118 (head and neck, adherent, top dose 10.24 µM)”, the AUC came to 0.983 and the half-inhibitory concentration (IC50) was greater than 10.2 µM.

Staying with this test, now noted: top dose 5 µM; screen: GDSC drug entry 1072; top dose inferred.
As to FLO-1 (oesophagus, adherent), the AUC was determined as 0.976 and the IC50 is greater than 5 µM.

For G-MEL (melanoma, adherent), the AUC was determined as 0.986 and the IC50 is greater than 5 µM.

H513 (mesothelioma, semi-adherent): the AUC was 0.967 and the concentration for half-maximal inhibition (IC50) was greater than 5 µM.

Take H2810 (mesothelioma, adherent): the AUC came out at 0.973 and the half-maximal inhibitory concentration (IC50) is greater than 5 µM.
